# The supplement of paper PMC8728848
# Some of the results follow.
# Tests used:
# Assay in all cases: glycan array binding signal (z-score within array); higher = stronger binding
# Settings in all cases: glycan notation: IUPAC condensed, linker removed
# [1] = target: Gal(b1-4)GlcNAc(b1-3)Gal(b1-4)GlcNAc(b1-6)[Gal(b1-3)]GalNAc
# Summary of the method: (§1)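 Columns mapping to the same glycan were averaged after glycan names were converted to IUPAC-condensed notation. The data come from 3228 arrays in the Consortium for Functional Glycomics database, limited to those with an available protein sequence. Binding is reported as a within-array Z-score averaged across arrays of one protein sequence and across linkers.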
# [2] = target: Gal(b1-4)GlcNAc(b1-3)Gal(b1-4)[Fuc(a1-3)]GlcNAc(b1-3)Gal(b1-4)[Fuc(a1-3)]GlcNAc
# Summary of the method: as §1
# [3] = target: Gal(b1-4)GlcNAc(b1-3)GalNAc
# Summary of the method: as §1
# [4] = target: Gal(b1-4)GlcNAc(b1-3)[Fuc(a1-3)GlcNAc(b1-6)]Gal(b1-4)Glc
# Summary of the method: as §1
# [5] = target: Gal(b1-4)GlcNAc(b1-3)[Gal(b1-4)GlcNAc(b1-6)]Gal(b1-4)GlcNAc
# Summary of the method: as §1
# [6] = target: Gal(b1-4)GlcNAc(b1-3)[GlcNAc(b1-6)]Gal(b1-4)GlcNAc
# Summary of the method: as §1
# [7] = target: Gal(b1-4)GlcNAc(b1-6)Gal(b1-4)GlcNAc
# Summary of the method: as §1
# [8] = target: Gal(b1-4)GlcNAc(b1-6)GalNAc
# Summary of the method: as §1
# [9] = target: Gal(b1-4)GlcNAc(b1-6)[Gal(b1-3)]GalNAc
# Summary of the method: as §1
# [10] = target: Gal(b1-4)GlcNAc(b1-6)[Gal(b1-4)GlcNAc(b1-3)]GalNAc
# Summary of the method: as §1
# Gal(b1-4)GlcNAc6P = target: Gal(b1-4)GlcNAc6P
# Summary of the method: as §1
# Gal(b1-6)Gal = target: Gal(b1-6)Gal
# Summary of the method: as §1
# Gal3S(b1-3)GalNAc = target: Gal3S(b1-3)GalNAc
# Summary of the method: as §1
# Gal3S(b1-3)GlcNAc = target: Gal3S(b1-3)GlcNAc
# Summary of the method: as §1
# [11] = target: Gal3S(b1-3)[Fuc(a1-4)]GlcNAc
# Summary of the method: as §1
# Gal3S(b1-4)Glc = target: Gal3S(b1-4)Glc
# Summary of the method: as §1
# Gal3S(b1-4)Glc6S = target: Gal3S(b1-4)Glc6S
# Summary of the method: as §1
# Gal3S(b1-4)GlcNAc = target: Gal3S(b1-4)GlcNAc
# Summary of the method: as §1
# [12] = target: Gal3S(b1-4)[Fuc(a1-3)]Glc6S
# Summary of the method: as §1
# [13] = target: Gal3S(b1-4)[Fuc(a1-3)]GlcNAc
# Summary of the method: as §1
# [14] = target: Gal3S(b1-4)[Fuc(a1-3)]GlcNAc6S
# Summary of the method: as §1
# Gal3S4S(b1-4)GlcNAc = target: Gal3S4S(b1-4)GlcNAc
# Summary of the method: as §1
# Gal3S6S(b1-4)GlcNAc = target: Gal3S6S(b1-4)GlcNAc
# Summary of the method: as §1
# Gal3S6S(b1-4)GlcNAc6S = target: Gal3S6S(b1-4)GlcNAc6S
# Summary of the method: as §1
# Gal4S(b1-4)GlcNAc = target: Gal4S(b1-4)GlcNAc
# Summary of the method: as §1
# Gal4S6S(b1-4)GlcNAc = target: Gal4S6S(b1-4)GlcNAc
# Summary of the method: as §1
# Gal6P(b1-4)GlcNAc = target: Gal6P(b1-4)GlcNAc
# Summary of the method: as §1
# Gal6S(b1-3)GlcNAc = target: Gal6S(b1-3)GlcNAc
# Summary of the method: as §1
# Gal6S(b1-3)GlcNAc6S = target: Gal6S(b1-3)GlcNAc6S
# Summary of the method: as §1
# Gal6S(b1-4)Glc = target: Gal6S(b1-4)Glc
# Summary of the method: as §1
# Gal6S(b1-4)Glc6S = target: Gal6S(b1-4)Glc6S
# Summary of the method: as §1
# Gal6S(b1-4)GlcNAc = target: Gal6S(b1-4)GlcNAc
# Summary of the method: as §1
# Gal6S(b1-4)GlcNAc6S = target: Gal6S(b1-4)GlcNAc6S
# Summary of the method: as §1
# GalNAc(a1-3)Gal = target: GalNAc(a1-3)Gal
# Summary of the method: as §1
# GalNAc(a1-3)GalNAc = target: GalNAc(a1-3)GalNAc
# Summary of the method: as §1
# [15] = target: GalNAc(a1-3)GalNAc(b1-3)Gal(a1-4)Gal(b1-4)Glc
# Summary of the method: as §1
# [16] = target: GalNAc(a1-3)GalNAc(b1-3)Gal(a1-4)Gal(b1-4)GlcNAc
# Summary of the method: as §1
binder,measurement,setting,value
GS13455A-bfa-343-25-343 (Bacteroides fragilis) (protein) KDEIQIVDQDTSWQMDNKYIEEDIREQLGIDPFTDLVYLGYYGNPYTQLEAINDLVNTTLVGKNELSFKVKVTKPYKEDIKVNLMKEDKLVTDFPEMAEGIPLFPSENCTFEGGVLKAGELETTVKLTLKDVEKLNNLSGYVMAIKLTMEGSHEHLAIARTRSSYFVKLNLSIRLDNIDSSNKKIEGKGFNKEISFKSDIRPDKLGSLNDGNFTANNWYTSNANNYLTIILPEKQSLKGFRLDTNTSPSGSYMLKSCRVMVETPDGNWVNHGVFDRKSMDGIAYISFKKPVECTKVRFENMMAFNGRFSVDVNEVTAFR,glycan array binding signal (z-score),[1],-0.023
same,glycan array binding signal (z-score),[2],-0.07
same,glycan array binding signal (z-score),[3],-0.395
same,glycan array binding signal (z-score),[4],-0.429
same,glycan array binding signal (z-score),[5],0.03
same,glycan array binding signal (z-score),[6],-0.425
same,glycan array binding signal (z-score),[7],0.122
same,glycan array binding signal (z-score),[8],0.827
same,glycan array binding signal (z-score),[9],-0.416
same,glycan array binding signal (z-score),[10],-0.037
same,glycan array binding signal (z-score),Gal(b1-4)GlcNAc6P,-0.411
same,glycan array binding signal (z-score),Gal(b1-6)Gal,-0.307
same,glycan array binding signal (z-score),Gal3S(b1-3)GalNAc,-0.267
same,glycan array binding signal (z-score),Gal3S(b1-3)GlcNAc,-0.102
same,glycan array binding signal (z-score),[11],0.109
same,glycan array binding signal (z-score),Gal3S(b1-4)Glc,1.7
same,glycan array binding signal (z-score),Gal3S(b1-4)Glc6S,-0.189
same,glycan array binding signal (z-score),Gal3S(b1-4)GlcNAc,-0.033
same,glycan array binding signal (z-score),[12],1.38
same,glycan array binding signal (z-score),[13],-0.28
same,glycan array binding signal (z-score),[14],-0.293
same,glycan array binding signal (z-score),Gal3S4S(b1-4)GlcNAc,-0.331
same,glycan array binding signal (z-score),Gal3S6S(b1-4)GlcNAc,-0.168
same,glycan array binding signal (z-score),Gal3S6S(b1-4)GlcNAc6S,1.68
same,glycan array binding signal (z-score),Gal4S(b1-4)GlcNAc,1.01
same,glycan array binding signal (z-score),Gal4S6S(b1-4)GlcNAc,0.197
same,glycan array binding signal (z-score),Gal6P(b1-4)GlcNAc,-0.523
same,glycan array binding signal (z-score),Gal6S(b1-3)GlcNAc,-0.365
same,glycan array binding signal (z-score),Gal6S(b1-3)GlcNAc6S,-0.888
same,glycan array binding signal (z-score),Gal6S(b1-4)Glc,-0.442
same,glycan array binding signal (z-score),Gal6S(b1-4)Glc6S,0.768
same,glycan array binding signal (z-score),Gal6S(b1-4)GlcNAc,1.12
same,glycan array binding signal (z-score),Gal6S(b1-4)GlcNAc6S,0.412
same,glycan array binding signal (z-score),GalNAc(a1-3)Gal,0.262
same,glycan array binding signal (z-score),GalNAc(a1-3)GalNAc,-0.437
same,glycan array binding signal (z-score),[15],0.862
same,glycan array binding signal (z-score),[16],0.981
